# PubChem BioAssay AID1645882 (National Center for Advancing Translational Sciences (NCATS), 2021)
# In all, about 16,000 compounds went through this assay and about 120 (0.75%) were called active. Inconclusive results (about 4%) are left out. The call rests on the fitted dose curve; in most records, active means well fitted inhibition curve with a large enough effect; inconclusive means small, poorly fitted or top-dose-only effect; inactive means no such curve, though single readings can be large or run the other way. This is one part of the list.
# Molecular target: Rap guanine nucleotide exchange factor 3 (Homo sapiens) (UniProt O95398)
# Chain of UniProt O95398 (O95398 whole entry, looked up): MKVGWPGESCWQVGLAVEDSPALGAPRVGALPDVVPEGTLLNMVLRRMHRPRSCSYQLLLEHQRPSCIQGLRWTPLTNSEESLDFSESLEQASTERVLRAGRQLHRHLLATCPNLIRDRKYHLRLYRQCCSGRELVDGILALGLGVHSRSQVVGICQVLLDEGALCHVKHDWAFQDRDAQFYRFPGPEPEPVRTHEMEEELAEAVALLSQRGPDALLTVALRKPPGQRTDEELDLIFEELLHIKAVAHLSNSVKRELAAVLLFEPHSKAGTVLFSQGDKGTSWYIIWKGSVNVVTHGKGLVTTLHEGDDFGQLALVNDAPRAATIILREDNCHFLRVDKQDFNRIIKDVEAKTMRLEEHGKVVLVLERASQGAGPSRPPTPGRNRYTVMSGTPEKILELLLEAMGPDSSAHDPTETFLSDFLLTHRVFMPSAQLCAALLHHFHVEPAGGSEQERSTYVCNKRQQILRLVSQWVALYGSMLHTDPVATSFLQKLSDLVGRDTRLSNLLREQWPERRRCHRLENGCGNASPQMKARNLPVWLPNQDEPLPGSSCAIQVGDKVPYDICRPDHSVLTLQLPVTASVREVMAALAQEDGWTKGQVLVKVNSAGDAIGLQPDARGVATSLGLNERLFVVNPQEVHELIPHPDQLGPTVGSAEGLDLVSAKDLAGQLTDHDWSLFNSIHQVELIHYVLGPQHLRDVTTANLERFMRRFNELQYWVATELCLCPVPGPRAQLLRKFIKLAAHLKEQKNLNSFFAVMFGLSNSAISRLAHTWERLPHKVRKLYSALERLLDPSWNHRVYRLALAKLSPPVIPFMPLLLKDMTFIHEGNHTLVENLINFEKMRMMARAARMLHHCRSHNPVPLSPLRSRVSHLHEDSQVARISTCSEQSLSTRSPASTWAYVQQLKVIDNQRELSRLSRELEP
# Assay: Validation qHTS for antagonist of cAMP-regulated guanine nucleotide exchange factor 3 (EPAC1);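 further: plate controls were DMSO for no effect and ATA control for full effect; nearly all actives have a fitted effect of over 75% in size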
# Details: EPAC1 Rap1B-BODIPY-GDP exchange, fluorescence; series mostly up to 150 µM; activity change, negative = inhibition: at the top concentration
# Procedure, shortened: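 EPAC1 (100 nM) mixed with 250 nM RAP1B-BODIPY-GDP and 50 uM GDP; compounds in concentration series, 5 min at room temperature. Fluorescence (ex 480/em 540 nm) read every 5 min for 30 min; normalized to ATA control and DMSO.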
row,Molecule,"activity change, negative = inhibition"
1,CC(=O)N(CC(C)C(=O)O)c1c(I)cc(I)c(N)c1I (stereo not drawn),inactive: 15.5% [at 75.8 µM]
2,CC(=O)OCC1=C(C(=O)O)N2C(=O)[C@@H](NC(=O)CSc3ccncc3)[C@H]2SC1,inactive: 5.89%
3,CCNc1ncc2nc(-c3ccc(F)cc3)c(=O)n(Cc3ccc(F)cc3)c2n1,inactive: 4.32%
4,Cn1cccc1C(=O)N1CCC2(CC1)CCN(c1ccc(-c3ccccc3)cc1)CC2,inactive: 21.5%
5,CN(Cc1ccco1)c1cc(-c2ccc3c(c2)OCO3)ncn1,inactive: 1.54%
6,O=C1C(c2ccccn2)=[N+]([O-])c2ccccc21,inactive: 5.4%
7,Cc1nc(NS(=O)(=O)c2ccc(N)cc2)nc(C)c1Br,inactive: 8.35%
8,O=C(Nc1ccccc1)N1CCCC2(CCNCC2)C1,inactive: 6.17%
9,CN(C)c1ccc(-c2nc(NCc3cccnc3)c3ccccc3n2)cc1,inactive: 4.53%
10,CCCCCCCC/C=C\CCCCCCCC(=O)NCCc1ccc(O)c(O)c1,inactive: -21.2% [at 75.8 µM]
11,COc1ccc(-c2nc3cnc(OC)nc3n(C3CC3)c2=O)cc1,inactive: 16.1%
12,H-RKDVY-OH,inactive: 18.6%
13,C[C@]12CC[C@@H]3c4ccc(O)cc4CC[C@H]3[C@@H]1CCC2=O,inactive
14,O=c1cnc2cnc(N3CCNCC3)nc2n1C1CC1,inactive: 16%
15,Cc1nc2cnc(N3CCN(C)CC3)nc2n(C2CC2)c1=O,inactive: 9.37%
16,c1cncc(-c2ccc3ncnc(NC4CCNCC4)c3c2)c1,inactive: 10.6%
17,CC(NC(=O)C1CCOCC1)c1nnc2n1CCN(Cc1ccc(F)cc1)CC2 (stereo not drawn),inactive: 18.1%
18,O=C1CCN(Cc2cccnc2)CCN1[C@H](CO)Cc1ccccc1,inactive: -9.95%
19,CC(C)(O)C1CC[C@@]2(C)C3CCC4[C@@]5(C)CCCC(C)(C)C5C(O)C[C@]4(C)[C@]3(C)CC[C@@H]12 (stereo partly drawn),inactive: 5.61%
20,CC(=O)c1c(O)c(C)c(O)c2c1OC1=CC(=O)C(C(C)=O)C(=O)C12C (stereo not drawn),inactive: 17.8%
21,CCCCN1CC[C@H]2C=CC[C@@H](C(=O)N3CCN(c4ccccc4)CC3)[C@H]2C1=O,inactive: 5.69%
22,OC[C@H]1O[C@@H](n2cnc3c(NC4CCCCC4)ncnc32)[C@H](O)[C@@H]1O,inactive
23,O=C(Nc1ccccc1)N1CC[C@@]2(CCCN(C(=O)c3cnccn3)C2)C1,inactive: 4.74%
24,COc1cccc(-c2nc(NCc3cnc(C)cn3)c3ccccc3n2)c1,inactive: -9.6%
25,O=C(c1cnn(-c2nccc(-c3ccccc3F)n2)c1C1CC1)N1CCN(CCO)CC1,inactive: 9.05%
26,COc1cc(C(=O)NC2CCCNC2)cc(OC)c1OC (stereo not drawn),inactive: 4.02%
27,Oc1ccc2c(c1)OCC1(O)Cc3cc(O)c(O)cc3C21 (stereo not drawn),inactive: 14.2%

row,Molecule,"activity change, negative = inhibition"
1,N#Cc1cccc(NC(=O)N2CC[C@@]3(CCCN(C(=O)c4csnn4)C3)C2)c1,inactive: 19.3%
2,COC(=O)c1c(-c2cc(OC)c(OC)c(OC)c2)c2ccnc(OCc3ncccn3)c2c(=O)n1Cc1ccnc(C)c1,inactive: -12.7%
3,COCC(=O)Nc1cc(C(=O)N2CCN(c3ccccc3)C(=O)C2)cc2nc(-c3ccccc3)n(C)c12,inactive: 11%
4,C[C@H]1CCC(=O)N([C@H](CSc2ccccc2)Cc2ccccc2)CC1,inactive: -18.2%
5,O=C(Nc1cccc(F)c1)N1CC2(CCN(C(=O)c3ccco3)CC2)C1,inactive: -7.63%
6,NC(N)=NCc1cccc(I)c1,inactive
7,CCCCN(CCCC)c1ccc(/C=C/c2ccnc3ccccc23)cc1,inactive: 203%
8,CCCCC(CC)CN1CN(CC(CC)CCCC)CC(C)(N)C1 (stereo not drawn),inactive
9,COc1cc2c(cc1OC)C(=O)C(CC1CCN(Cc3ccccc3)CC1)C2 (stereo not drawn),inactive: 2.03%
10,CC(=O)OCC(=O)[C@@]1(O)CCC2C3CC(C)C4=CC(=O)C=CC4(C)C3C(O)CC21C (stereo partly drawn),inactive: 13.7%
11,CCCCCC[C@@H](CCC)C(=O)O,inactive: 32.9%
12,C=CC(=O)c1ccc2ccccc2c1,inactive: 10.7%
13,COc1cccc2c1CCC1=CC(=O)CC[C@@]12C,inactive: 11%
14,C=CCOc1ccc(CC(=O)O)cc1Cl,inactive: 15.3%
15,Cc1c(C(=O)NCCc2cccnc2)cnn1-c1ncc2c(n1)-c1ccccc1CC2,inactive: 22.9%
16,O=C(NCc1nnc2n1CCN(C(=O)/C=C/c1ccccc1)CC2)c1cccc(F)c1,inactive: 0.541%
17,N#CC(=C(/N)Sc1ccccc1N)/C(C#N)=C(/N)Sc1ccccc1N,inactive: -4.91%
18,COc1cc([C@@H]2c3cc4c(cc3[C@H](O)C3COC(=O)[C@@H]32)OCO4)cc(OC)c1OC (stereo partly drawn),inactive: -3.17% [at 75.8 µM]
19,CC(C)(C)c1ccc(CN2CCN(C(c3ccccc3)c3ccc(Cl)cc3)CC2)cc1 (stereo not drawn),inactive: -17.7%
20,COC(=O)[C@@H]1CCCN1Cc1ccc2c(c1)CN(Cc1cccc(Cl)c1)CCO2,inactive: 9.31%
21,CCCN1CCC(=O)N([C@H](COc2ccccc2)Cc2ccccc2)CC1,inactive: 3.68%
22,O=C(c1ccncc1)N1CCC[C@@]2(CCN(c3cccc(-c4ccccc4)c3)C2)C1,inactive: -6.61%
23,NS(=O)(=O)c1cccc2c1c([N+](=O)[O-])cc1nc(O)c(O)nc12,inactive
24,N#Cc1cccc(-c2nccc(NCc3cccnc3)n2)c1,inactive: 0.0426%
25,OCCCNc1ccccc1,inactive: 17.6%
26,CC(=O)c1ccc2c(c1)N(CCCN1CCC(CCO)CC1)c1ccccc1S2,inactive: 14.6% [at 75.8 µM]
